{"source": "PubChem BioAssay AID360", "about": "(National Center for Advancing Translational Sciences (NCATS), 2006)", "note": "The whole screen tested about 48,000 compounds, of which about 550 (1.1%) were called active. Another 4% or so got no clear call; they are omitted. No stated cut-off is given here; in the data, active means potency below about 15 µM; inconclusive means mostly about 16 µM to 33 µM; inactive means weaker than that. The list shows a part of the results. Potency means the concentration at half of the fitted maximal effect.", "data": [{"target": "Lysosomal acid glucosylceramidase (Homo sapiens) (UniProt P04062)", "sequence (P04062 whole entry, looked up)": "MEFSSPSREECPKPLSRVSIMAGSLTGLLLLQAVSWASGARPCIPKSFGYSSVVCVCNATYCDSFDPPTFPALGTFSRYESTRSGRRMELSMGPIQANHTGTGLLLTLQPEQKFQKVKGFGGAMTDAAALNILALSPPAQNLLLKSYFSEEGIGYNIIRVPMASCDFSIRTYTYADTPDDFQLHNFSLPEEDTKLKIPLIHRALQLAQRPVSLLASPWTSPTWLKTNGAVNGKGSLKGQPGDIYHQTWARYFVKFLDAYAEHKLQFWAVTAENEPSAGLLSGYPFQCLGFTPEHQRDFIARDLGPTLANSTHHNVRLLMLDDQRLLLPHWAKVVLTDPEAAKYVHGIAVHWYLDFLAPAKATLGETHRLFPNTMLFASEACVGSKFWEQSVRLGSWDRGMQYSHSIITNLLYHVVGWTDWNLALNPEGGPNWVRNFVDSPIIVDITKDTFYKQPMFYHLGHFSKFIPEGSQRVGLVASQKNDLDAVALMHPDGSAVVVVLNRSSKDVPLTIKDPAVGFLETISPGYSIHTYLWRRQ", "assay": "Glucocerebrosidase;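 further: the screen sought inhibitors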", "conditions": "purified enzyme, resorufin glucoside fluorescence (screen aimed at inhibitors), 20 min", "summary_of_the_method": "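Wild-type enzyme at 0.2 nM final in 50mM citric acid/KH2PO4, 10mM sodium taurocholate, 0.01% tween-20, pH 5.9, with resorufin beta-D-glucopyranoside at 30 uM final. Compounds titrated, 20 min at RT, red fluorescence read; AC50 from titration.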", "values": [{"smiles": "COc1ccc(S(=O)(=O)c2c(N)n(Cc3ccco3)c3nc4ccccc4nc23)cc1", "Potency": "inactive: > 76.9 µM"}, {"smiles": "CCOC(=O)c1ccc(NC(=O)Nc2ccc(S(N)(=O)=O)cc2)cc1", "Potency": "inactive: > 76.9 µM"}, {"smiles": "COc1c(S(=O)(=O)N2CCCC2)ccc(Cl)c1Cl", "Potency": "inactive: > 76.9 µM"}, {"smiles": "COc1cc(NC(=O)CS(=O)(=O)c2ccc(C)cc2)cc(OC)c1OC", "Potency": "inactive: > 76.9 µM"}, {"smiles": "COc1cccc(C2C(C(=O)c3sc(C)nc3C)=C(O)C(=O)N2CCN(C)C)c1OC", "note": "(configuration not stated)", "Potency": "inactive: > 76.9 µM"}, {"smiles": "O=C(CC1SCCNC1=O)Nc1cccc(C(F)(F)F)c1", "note": "(configuration not stated)", "Potency": "inactive: > 76.9 µM"}, {"smiles": "CNc1oc(Cc2ccccc2)nc1S(=O)(=O)c1ccccc1", "Potency": "inactive: > 76.9 µM"}, {"smiles": "Nn1c(=O)c2ccccc2n2c(SCc3ccccc3)nnc12", "Potency": "inactive: > 76.9 µM"}, {"smiles": "CCOc1ccc(NC(=O)C2CC(=O)N(CC)C(=Nc3ccc4c(c3)OCO4)S2)cc1", "note": "(configuration not stated)", "Potency": "inactive: > 76.9 µM"}, {"smiles": "Cc1cc(Oc2ccccc2)nc(OCC#N)n1", "Potency": "inactive: > 76.9 µM"}, {"smiles": "COc1ccc2[nH]c3ccccc3c2c1", "Potency": "inactive: > 76.9 µM"}, {"smiles": "COC(=O)C1C2C=CC3(CN(Cc4ccco4)C(=O)C13)O2", "note": "(configuration not stated)", "Potency": "inactive: > 76.9 µM"}, {"smiles": "CCn1c(SCC(=O)NCc2ccco2)nc2cccnc21", "Potency": "inactive: > 76.9 µM"}, {"smiles": "Cc1oc2c(c1C(=O)NCc1ccccc1)CCCC2", "Potency": "inactive: > 76.9 µM"}, {"smiles": "COc1ccc(-c2ccc(SCC(=O)NCc3ccco3)nn2)cc1", "Potency": "inactive: > 76.9 µM"}, {"smiles": "COc1ccc2[nH]c(C(=O)O)c(NS(=O)(=O)c3ccc(OC)c(OC)c3)c2c1", "Potency": "inactive: > 76.9 µM"}, {"smiles": "O=C(CCSc1nnc(-c2ccncc2)o1)Nc1ccccc1", "Potency": "inactive: > 76.9 µM"}, {"smiles": "Cc1ccc(C(=O)CC(C(=O)O)n2cccn2)cc1", "note": "(configuration not stated)", "Potency": "inactive: > 76.9 µM"}, {"smiles": "CCCCNC(=O)Nc1ccc(Br)cn1", "Potency": "inactive: > 76.9 µM"}, {"smiles": "CCN(CC)CCOC(=O)c1ccc(NC(=O)CCNC(=O)Cn2ccc3ccccc3c2=O)cc1", "Potency": "inactive: > 76.9 µM"}, {"smiles": "Nc1c(C(=O)NC2CCCC2)sc2nc(-c3cccs3)ccc12", "Potency": "inactive: > 76.9 µM"}, {"smiles": "C/C(=N\\n1nnnc1Nc1ccccc1)c1ccc(N)cc1", "Potency": "inactive: > 76.9 µM"}, {"smiles": "CCN(CC)CCN1C(=O)C(=O)/C(=C(/O)c2ccc(OCC(C)C)cc2)C1c1ccncc1", "note": "(configuration not stated)", "Potency": "inactive: > 76.9 µM"}, {"smiles": "CN1CCN(c2ccccc2NC(=O)c2ccc(Br)o2)CC1", "Potency": "inactive: > 76.9 µM"}, {"smiles": "COCCCNC(=O)CCc1nc(-c2ccccc2Cl)no1", "Potency": "inactive: > 76.9 µM"}, {"smiles": "O=C(CSc1ncnc2sc3c(c12)CCCC3)N1CCC(c2noc3ccc(F)cc23)CC1", "Potency": "inactive: > 76.9 µM"}, {"smiles": "CCOc1cc(-c2c(C)c(CC)nc(N)c2C#N)ccc1O", "Potency": "inactive: > 76.9 µM"}, {"smiles": "CC1=C(C(=O)OCC2CCCO2)C(c2ccncc2)C2=C(CC(C)(C)CC2=O)N1", "note": "(configuration not stated)", "Potency": "inactive: > 76.9 µM"}, {"smiles": "O=C(CSc1nc2cc(Cl)ccc2o1)c1cccs1", "Potency": "inactive: > 76.9 µM"}, {"smiles": "CCn1c(SCC(=O)Nc2cc3oc4ccccc4c3cc2OC)nnc1-c1cccs1", "Potency": "inactive: > 76.9 µM"}, {"smiles": "Cc1ccc(SCc2[nH]nc3c2C2(CCSCC2)C(C#N)=C(N)O3)cc1", "Potency": "inactive: > 76.9 µM"}, {"smiles": "Cc1nnc(N(Cc2ccccc2)C(=O)c2cnccn2)s1", "Potency": "inactive: > 76.9 µM"}, {"smiles": "O=C(O)C1CC=C(Cl)CC1C(=O)NCc1ccccc1", "note": "(configuration not stated)", "Potency": "inactive: > 76.9 µM"}, {"smiles": "CCCCNC(=O)CCC(=O)Nc1ccc2nc(N3CCOCC3)cc(C)c2c1", "Potency": "active: 3.76 µM"}, {"smiles": "CCOC(=O)c1c(C)[nH]c(C(=O)OCC(=O)N2c3ccccc3CC2C)c1C", "note": "(configuration not stated)", "Potency": "inactive: > 15.4 µM"}, {"smiles": "O=C(CN1C(=O)NC2(CCCCC2)C1=O)NCCC1=CCCCC1", "Potency": "inactive: > 76.9 µM"}, {"smiles": "CCOC(=O)c1cnc(SCc2nc(N)nc(Nc3ccc(C)cc3)n2)nc1N", "Potency": "inactive: > 76.9 µM"}, {"smiles": "Cc1cccc(C)c1NC(=O)CSCC(=O)O", "Potency": "inactive: > 76.9 µM"}, {"smiles": "CCN(CCCNC(=O)C1CCN(S(=O)(=O)N2CCOCC2)CC1)c1cccc(C)c1", "Potency": "inactive: > 76.9 µM"}, {"smiles": "CCOC(=O)C1CCCN(C2CC(=O)N(c3ccc(C)c(C)c3)C2=O)C1", "note": "(configuration not stated)", "Potency": "inactive: > 76.9 µM"}, {"smiles": "CCC(=O)Nc1cccc(NC(=O)CSc2nnc(-c3ccc(NS(C)(=O)=O)cc3)n2C)c1", "Potency": "inactive: > 76.9 µM"}, {"smiles": "Cc1nc2cc(S(=O)(=O)N(C)C)ccc2n1-c1ccccc1", "Potency": "inactive: > 76.9 µM"}, {"smiles": "Cc1ccccc1Oc1ccc(Oc2ccccc2C)nn1", "Potency": "inactive: > 76.9 µM"}, {"smiles": "C/C(N)=C(/C#N)C(=O)CSc1ccc2c(c1)OCCO2", "Potency": "inactive: > 76.9 µM"}, {"smiles": "CCC1S/C(=C(\\C#N)C(=O)NCc2ccco2)N(c2ccc(F)cc2)C1=O", "note": "(configuration not stated)", "Potency": "inactive: > 76.9 µM"}, {"smiles": "FC(F)(F)c1cnc(Oc2ccc(-c3nnco3)cc2)c(Cl)c1", "Potency": "inactive: > 76.9 µM"}, {"smiles": "COC(=O)c1cc(NC(=O)C23CCC(C)(C(=O)O2)C3(C)C)cc(C(=O)OC)c1", "note": "(configuration not stated)", "Potency": "inactive: > 76.9 µM"}, {"smiles": "COc1ccccc1NC(=O)CN1CCN(CC(=O)Nc2ccc(F)cc2)CC1", "Potency": "inactive"}, {"smiles": "CC(C)=CCC/C(C)=C/CCC(C)NCCN1CCNCC1", "note": "(configuration not stated)", "Potency": "inactive: > 76.9 µM"}, {"smiles": "CCCCCn1c(CN2CCCCC2C)nc2c1c(=O)n(C)c(=O)n2C", "note": "(configuration not stated)", "Potency": "inactive: > 76.9 µM"}, {"smiles": "CC1=CC(C)(C)Nc2cc(C)c(C)cc21", "Potency": "inactive: > 76.9 µM"}, {"smiles": "CCOC(=O)c1cnn(-c2cccc(Cl)c2)c1N", "Potency": "inactive: > 76.9 µM"}, {"smiles": "CCOc1ccc2nc(NC(=O)CSc3nc4ccccc4c(=O)n3Cc3ccco3)sc2c1", "Potency": "inactive: > 76.9 µM"}, {"smiles": "O=S(=O)(Cc1ccc(Cl)cc1)NCC1CCCO1", "note": "(configuration not stated)", "Potency": "inactive: > 76.9 µM"}, {"smiles": "CC1(C)OC(=O)N(c2cccnc2)C1(C)O", "note": "(configuration not stated)", "Potency": "inactive: > 76.9 µM"}, {"smiles": "Clc1ccc(SCCCCn2cncn2)cc1", "Potency": "inactive: > 76.9 µM"}, {"smiles": "Nc1ccc2c(c1)C(=O)N(CCCC(=O)O)C2=O", "Potency": "inactive: > 76.9 µM"}, {"smiles": "Cn1c(CN2CCCCC2)nc2cc(NC(=O)c3cccs3)ccc21", "Potency": "inactive: > 76.9 µM"}, {"smiles": "O=C(CN1CCN(S(=O)(=O)c2ccc(F)cc2)CC1)Nc1cccc(C(F)(F)F)c1", "Potency": "inactive: > 76.9 µM"}, {"smiles": "CC1=C(C(=O)Nc2ccccc2C)C2(CCCC2)C(C(N)=O)C(=O)N1", "note": "(configuration not stated)", "Potency": "inactive: > 76.9 µM"}, {"smiles": "O=C(CSc1nc2c(c(=O)n1-c1ccc(Cl)cc1)SCC2)N1CCCC1", "Potency": "inactive: > 76.9 µM"}, {"smiles": "O=S(=O)(c1cccs1)N1CCN(CC(O)COC2CCCc3ccccc32)CC1", "note": "(configuration not stated)", "Potency": "inactive"}, {"smiles": "CCOc1ccccc1NC(=O)C1CC2CCCC(C1)C2=O", "note": "(configuration not stated)", "Potency": "inactive: > 76.9 µM"}, {"smiles": "Cc1[nH]nc2c1C(c1ccccc1F)CC(=O)N2", "note": "(configuration not stated)", "Potency": "inactive: > 76.9 µM"}, {"smiles": "Cc1csc(NC(=O)CSc2nnc(-c3ccncc3)o2)n1", "Potency": "inactive: > 76.9 µM"}, {"smiles": "CN(c1ccc(C(=O)N2CCCCC2)cc1)S(C)(=O)=O", "Potency": "inactive: > 76.9 µM"}, {"smiles": "O=C(/C=N/O)Nc1cccnc1", "Potency": "inactive: > 76.9 µM"}, {"smiles": "CCOc1cc(C2C(C(=O)OC)=C(C)N=C3SC(C)C(=O)N32)ccc1OC(C)=O", "note": "(configuration not stated)", "Potency": "inactive: > 76.9 µM"}, {"smiles": "O=C(NCc1ccncc1)c1nnc(Cc2c(F)cccc2Cl)o1", "Potency": "inactive: > 76.9 µM"}, {"smiles": "CCCCOc1ccc(-c2ncc(C(=O)OCC)c(N)n2)cc1", "Potency": "inactive: > 76.9 µM"}, {"smiles": "CC1=C(C(=O)OC(C)(C)C)C(c2ccco2)C(C#N)=C(N)O1", "note": "(configuration not stated)", "Potency": "inactive: > 76.9 µM"}, {"smiles": "Cc1c(N2C(=O)C(C)SC23C(=O)Nc2ccccc23)c(=O)n(-c2ccccc2)n1C", "note": "(configuration not stated)", "Potency": "inactive: > 76.9 µM"}, {"smiles": "COc1ccccc1-c1noc(-c2ccncc2)n1", "Potency": "inactive: > 76.9 µM"}, {"smiles": "COc1ccc(S(=O)(=O)N2CCC(O)(c3ccc(Cl)cc3)CC2)cc1", "Potency": "inactive: > 76.9 µM"}, {"smiles": "Cc1ccc(N(CC(=O)O)S(C)(=O)=O)cc1Cl", "Potency": "inactive: > 76.9 µM"}, {"smiles": "Cn1c(SCC(=O)NCc2ccco2)nnc1-c1ccc(S(=O)(=O)N2CCOCC2)cc1", "Potency": "inactive: > 76.9 µM"}, {"smiles": "O=C(NCc1ccccn1)C1CCN(S(=O)(=O)N2CCCCC2)CC1", "Potency": "inactive: > 76.9 µM"}, {"smiles": "Cc1cccc(N(CC(=O)NC2CCCC2)C(=O)CCCC(=O)Nc2ccccn2)c1", "Potency": "inactive: > 76.9 µM"}, {"smiles": "CCN(CC)CCNC(=O)c1c(O)c2cc(OC)c(OC)cc2[nH]c1=O", "Potency": "inactive: > 76.9 µM"}, {"smiles": "C=CCSc1nnc2c(n1)OC(c1cccnc1)N(C(C)=O)c1ccccc1-2", "note": "(configuration not stated)", "Potency": "inactive: > 76.9 µM"}, {"smiles": "Cc1cccc(C)c1NC(=O)CSc1nnc(CCCCCNC(=O)OC(C)(C)C)o1", "Potency": "inactive: > 76.9 µM"}, {"smiles": "O=C(C1CCC(C(=O)N2CCCCC2)CC1)N1CCCCC1", "note": "(configuration not stated)", "Potency": "inactive: > 76.9 µM"}, {"smiles": "CCC(=O)Nc1cc(OC)c(NC(=O)c2ccccc2)cc1OC", "Potency": "inactive: > 76.9 µM"}, {"smiles": "Cc1cccc(OCCCC(=O)O)c1C", "Potency": "inactive: > 76.9 µM"}, {"smiles": "COc1ccccc1CC(=O)Nc1ccc(O)cc1C(=O)O", "Potency": "inactive: > 76.9 µM"}, {"smiles": "CC(C)Oc1ccc(C2/C(=C(/O)c3ccc(F)cc3)C(=O)C(=O)N2CCCN(C)C)cc1", "note": "(configuration not stated)", "Potency": "inactive: > 76.9 µM"}, {"smiles": "CC(=O)NC(C)C(c1cccs1)N1CCN(c2ccccc2)CC1", "note": "(configuration not stated)", "Potency": "inactive: > 76.9 µM"}, {"smiles": "CCc1cc(=O)oc2c(C)c(O)c(CN3CCCCC3)cc12", "Potency": "inactive: > 76.9 µM"}, {"smiles": "O=C(NC1CCCC1)C(c1cccs1)N(Cc1ccco1)C(=O)c1csnn1", "note": "(configuration not stated)", "Potency": "inactive: > 76.9 µM"}, {"smiles": "CC(C)(C)C1(c2ccccc2)NC(=O)N(CC(=O)N2CCOCC2)C1=O", "note": "(configuration not stated)", "Potency": "inactive: > 76.9 µM"}, {"smiles": "CN(C(=O)c1ccncc1)c1nnc(-c2ccncc2)s1", "Potency": "inactive: > 76.9 µM"}, {"smiles": "CC(=O)NC1CC2CCCC(C1)N2CC(=O)N1CCCc2ccccc21", "note": "(configuration not stated)", "Potency": "inactive: > 76.9 µM"}]}]}
